Test results from publication PMC5663720.
Results are given in words; binding and its absence hold for the method and conditions named. For some assays here: In cells and extracts the contact can be indirect. Some results given as binding are weak or reduced against the parent protein; the word gives no strength. Sequences can lack the tags named with a protein. One block for each molecule: values may come before it.

Amino acid sequences for entries named in this document (tags omitted). A change or cut given only in a name is not applied to a line headed by its entry. Residues count along the entry.
UniProt Q9FL28: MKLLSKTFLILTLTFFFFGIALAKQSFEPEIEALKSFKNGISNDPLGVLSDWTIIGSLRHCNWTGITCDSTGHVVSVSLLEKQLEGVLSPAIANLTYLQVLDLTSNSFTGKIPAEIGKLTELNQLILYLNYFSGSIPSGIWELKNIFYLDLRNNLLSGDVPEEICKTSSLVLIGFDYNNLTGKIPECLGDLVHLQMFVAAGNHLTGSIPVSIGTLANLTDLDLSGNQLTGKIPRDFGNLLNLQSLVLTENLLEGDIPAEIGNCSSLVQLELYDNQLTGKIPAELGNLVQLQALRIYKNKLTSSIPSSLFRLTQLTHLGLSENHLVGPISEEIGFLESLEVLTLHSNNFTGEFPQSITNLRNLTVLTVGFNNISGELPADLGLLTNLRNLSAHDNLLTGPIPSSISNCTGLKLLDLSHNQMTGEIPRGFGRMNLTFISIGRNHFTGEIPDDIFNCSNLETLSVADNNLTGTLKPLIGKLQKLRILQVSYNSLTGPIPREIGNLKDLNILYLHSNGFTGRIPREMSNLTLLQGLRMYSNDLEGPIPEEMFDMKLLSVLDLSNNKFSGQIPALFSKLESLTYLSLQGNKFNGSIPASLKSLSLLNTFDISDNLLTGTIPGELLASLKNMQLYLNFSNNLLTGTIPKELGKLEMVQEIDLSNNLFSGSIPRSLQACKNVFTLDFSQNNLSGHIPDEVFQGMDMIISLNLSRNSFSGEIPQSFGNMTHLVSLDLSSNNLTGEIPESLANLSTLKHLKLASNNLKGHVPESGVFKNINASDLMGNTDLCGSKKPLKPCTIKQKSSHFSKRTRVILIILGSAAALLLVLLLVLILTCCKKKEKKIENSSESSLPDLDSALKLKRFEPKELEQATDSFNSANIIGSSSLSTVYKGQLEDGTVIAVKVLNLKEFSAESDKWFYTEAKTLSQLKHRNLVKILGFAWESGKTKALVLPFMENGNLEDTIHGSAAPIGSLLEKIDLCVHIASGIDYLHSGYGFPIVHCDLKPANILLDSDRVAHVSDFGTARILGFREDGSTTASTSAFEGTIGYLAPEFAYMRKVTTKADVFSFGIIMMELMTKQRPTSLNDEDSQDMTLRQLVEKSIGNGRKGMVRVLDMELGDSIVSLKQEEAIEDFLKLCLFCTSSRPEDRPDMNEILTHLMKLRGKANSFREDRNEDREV
FLS2-YFP^N (Arabidopsis protoplasts): residues 24-1173 of Q9FL28

Columns and labels:
[1] = target: T1, CRK36 intracellular kinase domain, GAL4 fusion (Arabidopsis thaliana) (UniProt Q9XEC6); test: two-hybrid; GAL4 system (Clontech), pGBKT7 (BD) and pGADT7 (AD) fusions in yeast AH109; growth on SD/-Ade-His-Leu-Trp, with or without X-alpha-Gal
T1 sequence: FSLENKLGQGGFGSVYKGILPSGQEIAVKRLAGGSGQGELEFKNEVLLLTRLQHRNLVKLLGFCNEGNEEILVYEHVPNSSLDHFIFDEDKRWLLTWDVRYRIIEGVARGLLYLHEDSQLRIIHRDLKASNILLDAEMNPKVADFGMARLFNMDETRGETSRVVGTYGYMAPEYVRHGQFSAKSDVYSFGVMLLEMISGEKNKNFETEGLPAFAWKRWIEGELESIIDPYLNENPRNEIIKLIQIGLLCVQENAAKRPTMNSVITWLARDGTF

[2] = target: T2, GST-fused BIK1 (Arabidopsis thaliana) (UniProt O48814); test: pull-down; GST-fused BIK1 (10 ug) incubated with His-tagged CRK36 kinase domain (10 ug) in 20 mM Tris-HCl pH 7.4, 200 mM NaCl, 1 mM EDTA, 2 h, 4 C; glutathione sepharose 4B beads; immunoblot with anti-GST and anti-His; both purified
T2 sequence: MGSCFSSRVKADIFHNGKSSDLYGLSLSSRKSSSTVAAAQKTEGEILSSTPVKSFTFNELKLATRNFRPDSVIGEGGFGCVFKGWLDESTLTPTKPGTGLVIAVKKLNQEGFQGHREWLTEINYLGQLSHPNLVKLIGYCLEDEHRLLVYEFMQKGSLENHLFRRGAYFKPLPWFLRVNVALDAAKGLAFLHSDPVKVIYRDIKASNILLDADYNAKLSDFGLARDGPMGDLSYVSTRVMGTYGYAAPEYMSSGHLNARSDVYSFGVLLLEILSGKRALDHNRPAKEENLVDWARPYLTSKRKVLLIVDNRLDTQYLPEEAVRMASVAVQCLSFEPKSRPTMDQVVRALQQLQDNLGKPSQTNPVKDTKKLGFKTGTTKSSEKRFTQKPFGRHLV

[3] = target: T3, BIK1-YFP^N (N. benthamiana) (Arabidopsis thaliana) (UniProt O48814); test: split reporter; BiFC (split YFP) in N. benthamiana leaves co-infiltrated with Agrobacterium C58C1; confocal microscopy
T3 sequence: T2 sequence

[4] = target: T4, BIK1-Myc (Arabidopsis thaliana) (UniProt O48814); test: co-IP; protein extracts of N. benthamiana leaves expressing CRK36-HA and BIK1-Myc; immunoprecipitation with anti-Myc, protein A sepharose; immunoblot with anti-HA and anti-Myc
T4 sequence: T2 sequence

[5] = target: T5, BIK1-YFP^N (Arabidopsis protoplasts) (Arabidopsis thaliana) (UniProt O48814); test: split reporter; BiFC (split YFP) in Arabidopsis mesophyll protoplasts, co-expressed for 24 h, untreated or treated with 100 nM flg22 for 15 min; confocal microscopy
T5 sequence: T2 sequence

[6] = target: FLS2-YFP^N (Arabidopsis protoplasts) (Arabidopsis thaliana) (UniProt Q9FL28); test: as above

Molecule: FLS2 cytoplasmic kinase domain, GAL4 fusion (from UniProt Q9FL28 870-1155) (domain or fragment)
binding [1]: no binding

B3: CERK1 cytoplasmic kinase domain, GAL4 fusion (domain or fragment, UniProt A8R7E6 322-594)
chain: FNLSFKIGQGGFGAVYYAELRGEKAAIKKMDMEASKQFLAELKVLTRVHHVNLVRLIGYCVEGSLFLVYEYVENGNLGQHLHGSGREPLPWTKRVQIALDSARGLEYIHEHTVPVYVHRDIKSANILIDQKFRAKVADFGLTKLTEVGGSATRGAMGTFGYMAPETVYGEVSAKVDVYAFGVVLYELISAKGAVVKMTEAVGEFRGLVGVFEESFKETDKEEALRKIIDPRLGDSYPFDSVYKMAELGKACTQENAQLRPSMRYIVVALSTLF
binding [1]: no binding

B4: CRK36-YFP^C (N. benthamiana) (receptor, UniProt Q9XEC6 27-658)
chain: TFVCGDEDFSPNTSYVENLESLLPSLASNVIRERGFYNVSLDGVYALALCRKHYEVQACRRCVDRASRTLLTQCRGKTEAYHWDSENDANVSCLVRYSNIHRFGKLKLEPIGNVPHSSLDPSSNLTRISQEFAARANRTVEVASTADESSVLKYYGVSSAEFTDTPEVNMLMQCTPDLSSSDCNHCLRENVRYNQEHNWDRVGGTVARPSCYFRWDDYRFAGAFDNLERVPAPPRSPQTRQDYRVKKGRMFQPWSVVVVVFPTGINLAVFVAFVLAYRRMRRRIYTEINKNSDSDGQATLRFDLGMILIATNEFSLENKLGQGGFGSVYKGILPSGQEIAVKRLAGGSGQGELEFKNEVLLLTRLQHRNLVKLLGFCNEGNEEILVYEHVPNSSLDHFIFDEDKRWLLTWDVRYRIIEGVARGLLYLHEDSQLRIIHRDLKASNILLDAEMNPKVADFGMARLFNMDETRGETSRVVGTYGYMAPEYVRHGQFSAKSDVYSFGVMLLEMISGEKNKNFETEGLPAFAWKRWIEGELESIIDPYLNENPRNEIIKLIQIGLLCVQENAAKRPTMNSVITWLARDGTFTIPKPTEAAFVTLPLSVKPENRSMSERKDKDPFSVDEVSITVLYPR
binding [3]: binds

Now from value to molecule:

binding [2]: binds
B1: His-tagged kinase domain of CRK36 (domain or fragment, UniProt Q9XEC6 340-612)
chain: T1 sequence

binding [1]: no binding
B2: BAK1 cytoplasmic kinase domain, GAL4 fusion (domain or fragment, UniProt Q94F62 289-576)
chain: FSNKNILGRGGFGKVYKGRLADGTLVAVKRLKEERTQGGELQFQTEVEMISMAVHRNLLRLRGFCMTPTERLLVYPYMANGSVASCLRERPESQPPLDWPKRQRIALGSARGLAYLHDHCDPKIIHRDVKAANILLDEEFEAVVGDFGLAKLMDYKDTHVTTAVRGTIGHIAPEYLSTGKSSEKTDVFGYGVMLLELITGQRAFDLARLANDDDVMLLDWVKGLLKEKKLEALVDVDLQGNYKDEEVEQLIQVALLCTQSSPMERPKMSEVVRMLEGDGLAERWEEWQ

binding [4]: binds
B5: CRK36-HA (receptor, UniProt Q9XEC6 27-658)
chain: B4 chain

binding [5]: binds
binding [6]: binds
B6: CRK36-YFP^C (Arabidopsis protoplasts) (receptor, UniProt Q9XEC6 27-658)
chain: B4 chain
